Measured values from US20140044674A1 (Hoffmann-La Roche, published 2014).
Like-named read-outs stand apart in the source and are kept apart here.

Key:
[1] = biological target: T1, recombinant human FAP coated on cell culture plates (human, UniProt Q12884 26-760, limits assumed); test: cell-based or functional assay
[2] = biological target: T2, His-tagged cynomolgus FAP ECD (cynomolgus, UniProt Q12884 27-760 (human entry)); test: SPR ProteOn XPR36, 25 C; His-tagged FAP captured by anti-penta-His IgG, construct as analyte
T2 construct: also called cyno FAP
Protocol: (§1) To determine the affinities to FAP, the target protein was captured via its H6-tag by a covalently immobilized anti-H6 antibody (FIG. 9A). Briefly, anti-penta His IgG (Qiagen #34660, mouse monoclonal antibody) was immobilized at high levels (up to ˜5.000 RU) at 30 μ/min onto separate vertical channels of a GLM chip by simultaneously activating all channels for 5 min with a freshly prepared mixture of 1-ethyl-3-(3-dimethylaminopropyl)-carboiimide (EDC) and N-hydroxysuccinimide (sNHS), subsequently injecting 15 μg/ml anti-penta His IgG in 10 mM sodium acetate buffer pH 4.5 for 180 sec. Channels were blocked using a 5-min injection of ethanolamine. H6-tagged FAP from different species (see SEQ ID NOs 81, 83 and 85) was captured from a 5 μg/ml dilution in running buffer along the vertical channels for 60 s at 30 μl/min to achieve ligand densities between ˜250 and 600 RU. In a one-shot kinetic assay set-up (OSK), antibody-IL-10 fusion constructs were injected as analytes along the horizontal channels in a five-fold dilution series ranging from 50 to 0.08 nM at 100 μl/min. Association phase was recorded for 180 s, dissociation phase for 600 s. […] Running buffer (PBST) was injected along the sixth channel to provide an “in-line” blank for referencing. Association rates (kₒₙ) and dissociation rates (koff) were calculated using a simple 1:1 Langmuir binding model (ProteOn Manager software version 2.1) by simultaneously fitting the association and dissociation sensorgrams. The equilibrium dissociation constant (KD) was calculated as the ratio koff/kₒₙ.

His-tagged mouse FAP ECD [3] = biological target: T3, His-tagged mouse FAP ECD (mouse, UniProt P97321 27-761); test: as above
T3 construct: also called mu FAP; murine FAP
Protocol: as §1

His-tagged human FAP ECD = biological target: T4, His-tagged human FAP ECD (human, UniProt Q12884 27-760); test: as above
T4 construct: also called hu FAP
Protocol: as §1

[4] = biological target: T1, recombinant human FAP coated on cell …; test: cell-based or functional assay; remark: listed apart in the source
[5] = biological target: T1, recombinant human FAP coated on cell …; test: cell-based or functional assay; remark: listed apart in the source
His-tagged mouse FAP ECD [6] = biological target: T3, His-tagged mouse FAP ECD; test: SPR ProteOn XPR36, 25 C; His-tagged FAP captured by anti-penta-His IgG, construct as analyte; KD calculated with the estimated koff
Protocol: as §1

[7] = biological target: T5, IL-10R on freshly isolated human blood monocytes (human, UniProt Q13651 22-578; Q08334 20-325); test: cell-based or functional assay
T5 sequence (looked up) 1: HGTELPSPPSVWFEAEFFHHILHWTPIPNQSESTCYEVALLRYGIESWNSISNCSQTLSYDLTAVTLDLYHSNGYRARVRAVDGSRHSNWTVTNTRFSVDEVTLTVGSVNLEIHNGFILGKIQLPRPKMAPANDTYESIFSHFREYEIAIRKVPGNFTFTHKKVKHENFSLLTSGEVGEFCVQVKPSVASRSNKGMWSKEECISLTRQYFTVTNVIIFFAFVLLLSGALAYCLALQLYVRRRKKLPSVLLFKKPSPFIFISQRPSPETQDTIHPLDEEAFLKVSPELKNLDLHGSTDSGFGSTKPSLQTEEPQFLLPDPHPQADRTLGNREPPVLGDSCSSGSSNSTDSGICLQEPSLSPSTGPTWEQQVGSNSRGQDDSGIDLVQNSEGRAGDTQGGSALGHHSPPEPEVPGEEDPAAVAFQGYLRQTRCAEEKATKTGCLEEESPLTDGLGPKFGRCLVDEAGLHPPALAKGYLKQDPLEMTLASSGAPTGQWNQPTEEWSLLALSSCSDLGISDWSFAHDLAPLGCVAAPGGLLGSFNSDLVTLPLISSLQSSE
T5 sequence (looked up) 2: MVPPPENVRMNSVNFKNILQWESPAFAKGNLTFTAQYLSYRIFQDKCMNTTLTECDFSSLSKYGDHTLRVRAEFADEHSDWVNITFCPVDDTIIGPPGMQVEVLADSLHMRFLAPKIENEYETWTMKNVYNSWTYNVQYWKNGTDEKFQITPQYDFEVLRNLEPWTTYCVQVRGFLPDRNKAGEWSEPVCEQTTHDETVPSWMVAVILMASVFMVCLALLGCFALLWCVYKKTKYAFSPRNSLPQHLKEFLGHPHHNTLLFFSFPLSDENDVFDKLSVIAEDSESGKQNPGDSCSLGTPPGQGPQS

His-tagged mouse FAP ECD [8] = biological target: T3, His-tagged mouse FAP ECD; test: SPR ProteOn XPR36, 25 C; His-tagged FAP captured by anti-penta-His IgG, construct as analyte; off-rate could not be fitted, estimate used
Protocol: as §1

[9] = biological target: T1, recombinant human FAP coated on cell …; test: cell-based or functional assay; remark: listed apart in the source
[10] = biological target: T1, recombinant human FAP coated on cell …; test: cell-based or functional assay; remark: listed apart in the source
[11] = biological target: T1, recombinant human FAP coated on cell …; test: cell-based or functional assay; remark: listed apart in the source
[12] = biological target: T1, recombinant human FAP coated on cell …; test: cell-based or functional assay; remark: listed apart in the source
[13] = biological target: T1, recombinant human FAP coated on cell …; test: cell-based or functional assay; remark: listed apart in the source
[14] = biological target: T1, recombinant human FAP coated on cell …; test: cell-based or functional assay; remark: listed apart in the source
[15] = biological target: T1, recombinant human FAP coated on cell …; test: cell-based or functional assay; remark: listed apart in the source
[16] = biological target: T1, recombinant human FAP coated on cell …; test: cell-based or functional assay; remark: listed apart in the source

B1: 4G8 Fab-IL-10 (other)
heavy: [about 100 residues omitted here]GWLGNFDYWGQGTLVTVSSASTKGPSVFPLAPSSKSTSGGTAALGCLVKDYFPEPVTVSWNSGALTSGVHTFPAVLQSSGLYSLSSVVTVPSSSLGTQTYICNVNHKPSNTKVDKKVEPKSCDGGGGSGGGGSGGGGSSPGQGTQSENSCTHFPGNLPNMLRDLRDAFSRVKTFFQMKDQLDNLLLKESLLEDFKGYLGCQALSEMIQFYLEEVMPQAENQDPDIKAHVNSLGENLKTLRLRLRRCHRFLPCENKSKAVEQVKNAFNKLQEKGIYKAMSEFDIFINYIEAYMTMKIRN
light: EIVLTQSPGTLSLSPGERATLSCRASQSVSRSYLAWYQQKPGQAPRLLIIGASTRATGIPDRFSGSGSGTDFTLTISRLEPEDFAVYYCQQGQVIPPTFGQGTKVEIKRTVAAPSVFIFPPSDEQLKSGTASVVCLLNNFYPREAKVQWKVDNALQSGNSQESVTEQDSKDSTYSLSSTLTLSKADYEKHKVYACEVTHQGLSSPVTKSFNRGEC
notes: also called Fab-IL-10 (clone 4G8)
EC50, suppression of hIL-1β production by monocytes, set-up (b) (immobilized), donor 1 [1]: 0.085 nM
EC50, suppression of hIL-6 production by monocytes, set-up (b) (immobilized), donor 1 [1]: 0.103 nM
EC50, suppression of hTNFα production by monocytes, set-up (b) (immobilized), donor 1 [1]: 0.017 nM
Kd [2]: 0.0364 nM
koff [2]: 0.000129 s⁻¹
kon [2]: 3.55e+06 M⁻¹ s⁻¹
kon (His-tagged mouse FAP ECD [3]): 1.77e+06 M⁻¹ s⁻¹
Kd (His-tagged human FAP ECD): 0.0521 nM
koff (His-tagged human FAP ECD): 0.000169 s⁻¹
kon (His-tagged human FAP ECD): 3.24e+06 M⁻¹ s⁻¹
EC50, suppression of LPS-induced hIL-1β production by monocytes, set-up (b) (immobilized), donor 1 [4]: 0.085 nM
EC50, suppression of LPS-induced hIL-6 production by monocytes, set-up (b) (immobilized), donor 1 [4]: 0.103 nM
EC50, suppression of LPS-induced hTNFα production by monocytes, set-up (b) (immobilized), donor 1 [4]: 0.017 nM
EC50, suppression of hIL-1β production by monocytes, set-up (b) (immobilized), donor 2 [5]: 0.023 nM
EC50, suppression of hIL-6 production by monocytes, set-up (b) (immobilized), donor 2 [5]: 0.06 nM
EC50, suppression of hTNFα production by monocytes, set-up (b) (immobilized), donor 2 [5]: 0.017 nM
Kd (His-tagged mouse FAP ECD [6]): 0.00565 nM
EC50 [nM] pSTAT3 induction, primary monocytes, Donor 1 [7]: 0.154 nM
EC50 [nM] pSTAT3 induction, primary monocytes, Donor 2 [7]: 0.194 nM
EC50 [nM] pSTAT3 induction, primary monocytes, Donor 3 [7]: 0.087 nM
koff (His-tagged mouse FAP ECD [8]): ~1e-05 s⁻¹
EC50, suppression of LPS-induced hIL-1β production by monocytes, set-up (b) (immobilized), donor 2 [9]: 0.023 nM
EC50, suppression of LPS-induced hIL-6 production by monocytes, set-up (b) (immobilized), donor 2 [9]: 0.06 nM
EC50, suppression of LPS-induced hTNFα production by monocytes, set-up (b) (immobilized), donor 2 [9]: 0.017 nM
EC50 [nM] IL-6, suppression of IL-6 production by monocytes, set-up (b) (immobilized), donor 4 [10]: 0.081 nM
EC50, suppression of LPS-induced hIL-1β production by monocytes, set-up (b) (immobilized), donor 3 [11]: 0.036 nM
EC50, suppression of LPS-induced hIL-6 production by monocytes, set-up (b) (immobilized), donor 3 [11]: 0.057 nM
EC50, suppression of LPS-induced hTNFα production by monocytes, set-up (b) (immobilized), donor 3 [11]: 0.025 nM
EC50, suppression of hIL-1β production by monocytes, set-up (b) (immobilized) [12]: 0.003 nM
EC50, suppression of hIL-6 production by monocytes, set-up (b) (immobilized) [12]: 0.02 nM
EC50, suppression of hTNFα production by monocytes, set-up (b) (immobilized) [12]: 0.001 nM
hIL-6 EC50 [nM], construct immobilized on FAP coated at 1 µg/ml, monocytes donor 5 [13]: 0.029 nM
hIL-6 EC50 [nM], construct immobilized on FAP coated at 5 µg/ml, monocytes donor 5 [13]: 0.016 nM
EC50 [nM] IL-6, suppression of IL-6 production by monocytes, Set-up (b), donor 7 [14]: 0.065 nM
EC50, suppression of hIL-1β production by monocytes, set-up (b) (immobilized), donor 3 [15]: 0.036 nM
EC50, suppression of hIL-6 production by monocytes, set-up (b) (immobilized), donor 3 [15]: 0.057 nM
EC50, suppression of hTNFα production by monocytes, set-up (b) (immobilized), donor 3 [15]: 0.025 nM

B2: 4G8 IgG-(IL-10M1)2 (other)
heavy: [about 100 residues omitted here][about 120 residues omitted here][human IgG1 Fc with changes omitted here]GGGGSGGGGSGGGGSSPGQGTQSENSCTHFPGNLPNMLRDLRDAFSRVKTFFQMKDQLDNLLLKESLLEDFKGYLGCQALSEMIQFYLEEVMPQAENQDPDIKAHVNSLGENLKTLRLRLRRCHRFLPCENGGGSGGKSKAVEQVKNAFNKLQEKGIYKAMSEFDIFINYIEAYMTMKIRN
light: B1 light
notes: also called IgG-(IL-10M1)2 (clone 4G8)
Kd [2]: 0.0521 nM
koff [2]: 0.00018 s⁻¹
kon [2]: 3.45e+06 M⁻¹ s⁻¹
Kd (His-tagged mouse FAP ECD [3]): 0.00657 nM
koff (His-tagged mouse FAP ECD [3]): 1.12e-05 s⁻¹
kon (His-tagged mouse FAP ECD [3]): 1.7e+06 M⁻¹ s⁻¹
Kd (His-tagged human FAP ECD): 0.0251 nM
koff (His-tagged human FAP ECD): 7.76e-05 s⁻¹
kon (His-tagged human FAP ECD): 3.09e+06 M⁻¹ s⁻¹
EC50, suppression of hIL-6 production by monocytes, set-up (b) (immobilized) [16]: 0.039 nM
